# Test results from the supplement of paper PMC5499739.
# Over roughly 16,000 sequences, “Z-score” has its median near -0.37; the highest 2% begin near 3.2. The list shows a part of the results.
# Tested on: RBM10 RRM1-ZnF (GST-tagged construct)
# Assay: RNAcompete 7-mer binding Z-score; higher = stronger binding preference
# How it was run: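 GST-tagged RBM10 constructs (20 pmol) were mixed with a designed pool of 241 399 RNAs up to 41 nt (1.5 nmol), transcribed from microarray-derived DNA templates. Mixing was in 1 ml Hepes pH 7.8 buffer with KCl, NaCl, glycerol, DTT, BSA and glutathione Sepharose beads. Binding ran 30 min at 4°C, followed by four 2-min washes at 4°C, and bound RNA was identified by microarray hybridisation. Each heptamer motif received a one-sided Z-score for enrichment across probes containing it.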
row,Sequence,RNAcompete 7-mer binding Z-score
1,AAGCGAG,1.75
2,UCCCGAC,-0.772
3,CCCGUUC,-0.759
4,AGUUUGA,-0.396
5,GCUAUCC,-0.73
6,GGUGUCA,1.12
7,GCAGUCA,-0.275
8,CGAGAUG,0.173
9,UCAUGCC,-0.857
10,CCGCCUG,-0.464
11,UACGAGG,0.849
12,ACUUUGA,-0.769
13,UCCUUCA,-0.756
14,AACAGCG,0.082
15,GCUAUAU,-0.516
16,GUUAUUU,-0.545
17,AGCAUCU,-0.818
18,GUAACGA,0.095
19,UGAAGUA,0.0788
20,GUGAGUU,0.43
21,UCCGUAC,-0.642
22,UUCUCCU,-0.789
23,CUGGGUG,1.83
24,AUAACCA,-0.746

row,Sequence,RNAcompete 7-mer binding Z-score
1,UGGUACA,0.673
2,GUCGAAU,-0.23
3,AACGCAA,-0.197
4,UCUUACU,-0.746
5,CACAGCA,-0.542
6,UGUUCAU,-0.565
7,CAAGCAC,-0.607
8,CCACAGA,-0.464
9,UCGGACC,-0.629
10,GCCUCAG,-0.694
11,CGCGGAC,0.069
12,CCCAGAC,-0.629
13,AUAGAGA,0.537
14,GCUCAGC,-0.415
15,UGGACGG,3.09
16,CAUACGC,-0.513
17,CAAGGCA,0.647
18,CUUGACU,-0.841
19,CGCGGUA,0.348
20,ACCCACU,-0.675
21,AGCACUC,-0.789
22,UAUCGGA,0.0268
23,UUAAUCU,-0.756
24,UAAAGAC,-0.175

row,Sequence,RNAcompete 7-mer binding Z-score
1,CGUUAAG,-0.324
2,CACCUGG,-0.269
3,GCAGGCU,0.495
4,UUCAUUC,-0.639
5,UGCUCCA,-0.594
6,GGACAGA,1.32
7,GGCCACG,-0.126
8,CCGCCGA,-0.464
9,CGGUGGU,1.64
10,UUUUCCC,-0.844
11,CGCAUGA,-0.129
12,GUGCGAU,-0.0999
13,CUGCUCA,-0.75
14,GGUCGUC,0.212
15,GCCCUGG,0.105
16,CUUAGCC,-0.873
17,AUGCUCG,-0.376
18,CUGGAAU,0.0625
19,CACUGGA,0.000789
20,UGUAGAU,0.166
21,CAGAUUG,-0.227
22,UGCGCAC,-0.334
23,CAGAGCC,-0.526
24,CACCACU,-0.409

row,Sequence,RNAcompete 7-mer binding Z-score
1,UAGUCCA,-0.626
2,GCCUUAA,-0.759
3,CUGCUCG,-0.73
4,ACCAGCU,-0.811
5,ACUAACC,-0.873
6,AUACCCG,-0.581
7,UAACUAG,-0.207
8,UAACAUU,-0.383
9,GCCCGGG,0.472
10,GGGGUAU,3.17
11,ACCCAUG,-0.636
12,AUCGAUU,-0.565
13,AAAUUCG,-0.574
14,UUUAGUG,-0.0707
15,AAAAAAA,-0.552
16,CACCCUA,-0.522
17,CGCUUAA,-0.776
18,AAUGAGA,0.316
19,UUCAUCA,-0.717
20,AAGGAGA,3.37
21,GUACAAA,-0.139
22,AAGUAGU,0.00729
23,AUCUAUA,-0.724
24,AGAUCGG,0.608

row,Sequence,RNAcompete 7-mer binding Z-score
1,CGGGGAG,2.57
2,UCGCCAG,-0.353
3,UCGCAUA,-0.457
4,AAACUGA,-0.34
5,CUGGAAA,0.209
6,AGUUCCA,-0.704
7,CUUUUCA,-0.818
8,AUCGCUG,-0.474
9,UGCCCCG,-0.389
10,UCAACCU,-0.776
11,UGGCUAC,-0.00896
12,UCACGUG,-0.253
13,UGCUUCA,-0.707
14,CUUAGAC,-0.668
15,CUAGUCC,-0.743
16,UUGCGGU,0.225
17,UUAAGGG,1.89
18,CACUCCC,-0.591
19,UUCGUUC,-0.727
20,CUUCAAC,-0.72
21,AUGGGUA,3.54
22,UGCAUAG,0.03
23,CUCAGGG,0.673
24,UUCCUCC,-0.769

row,Sequence,RNAcompete 7-mer binding Z-score
1,UACCGAA,-0.604
2,CCCAUUU,-1.09
3,AUGCGCC,-0.526
4,CUCUAUA,-0.73
5,CAUAUGA,-0.168
6,GUUCACC,-0.574
7,CCUGAUA,-0.704
8,GAGGUAG,2.67
9,GUGUAAC,0.683
10,CUCUUGA,-0.772
11,GUAUGUU,-0.0414
12,GAUCCAG,-0.21
13,GCCUCUA,-0.756
14,UAGUACG,0.121
15,AUCGGGC,0.719
16,GGAUACA,2.36
17,AGCUGAG,0.316
18,CCUACCC,-0.418
19,UUAAGGC,-0.0187
20,CCUCGAC,-0.724
21,ACUACUC,-0.714
22,UCAUAAC,-0.568
23,GACUGAU,-0.269
24,UCGGAUG,0.755

row,Sequence,RNAcompete 7-mer binding Z-score
1,UGUACGA,0.131
2,UGCUGAA,-0.314
3,AUGCUUG,-0.441
4,UCAUCAC,-0.863
5,AUAUCCC,-0.704
6,UCUUCUU,-0.763
7,CGGGACU,1.12
8,UAUAGUA,-0.0447
9,GAAGAUU,-0.0317
10,CCGGGCC,-0.548
11,CGAAAAC,-0.509
12,GUUGUUC,-0.347
13,GUCACGA,-0.324
14,AAUUUCA,-0.776
15,AGAGCAG,0.699
16,AGCACUA,-0.132
17,CGUGAGG,1.35
18,ACCAAUA,-0.685
19,GUAUUAA,-0.197
20,GGUCGGG,2.43
21,GCAGCCC,-0.496
22,UGUCUAU,-0.727
23,GUUUAGA,0.0495
24,AUCAGAA,-0.188

row,Sequence,RNAcompete 7-mer binding Z-score
1,GAGAACA,0.209
2,GGAUCGA,0.664
3,CAAAUUG,-0.392
4,AAGGACG,2.51
5,GCCACGA,-0.35
6,GCCGUAU,-0.571
7,UGUUUCU,-0.418
8,GUUGGGG,4.26
9,ACGGGCU,1.26
10,GGGAGGC,2.92
11,CGUCUGA,-0.701
12,AACUGGC,-0.00246
13,GUGCAUU,-0.0902
14,UAGUGUU,0.0365
15,GUCCUGG,0.319
16,CCGGGUG,1.47
17,UAAGACC,-0.675
18,AUGAGGA,2.06
19,GGGCAUC,1.34
20,UUCGACG,-0.548
21,CAUUGCA,-0.636
22,GAACGCC,-0.418
23,GAGCUUG,0.0203
24,UCAUGUC,-0.776

row,Sequence,RNAcompete 7-mer binding Z-score
1,ACAUCAU,-0.519
2,GUACCGA,-0.425
3,UACGAAG,-0.136
4,AAAUUGG,1.02
5,GCUCGAU,-0.402
6,CGUCAGU,-0.357
7,GGAAUUC,0.121
8,ACCCUGU,-0.759
9,UCCGAGA,-0.672
10,AAGAGGC,0.654
11,GUGACCC,0.0333
12,ACACCGC,-0.545
13,UACAACU,-0.594
14,UUUUAGA,-0.561
15,AAUGCAC,-0.272
16,GUGGGUU,3.11
17,CCGCUUA,-0.922
18,CCCCCCU,-0.279
19,UAAUUUC,-0.88
20,AUAUGUC,-0.461
21,UUUAUGA,-0.529
22,GACGAAC,-0.181
23,CACAUCA,-0.487
24,GUUAUGU,0.0463

row,Sequence,RNAcompete 7-mer binding Z-score
1,ACGCUUA,-0.704
2,AUUCAAC,-0.766
3,GUUCUGG,0.0918
4,UCUAUAC,-0.821
5,CUGCUUC,-0.72
6,CGGGGCU,1.71
7,CACCGGU,0.196
8,AGCCUAG,-0.47
9,AGCAACU,-0.376
10,GUCCUGC,-0.594
11,CGCUCAG,-0.47
12,CAGUCGU,-0.522
13,CUGGGAU,1.11
14,GGCAAAG,1.36
15,GAGGAGC,1.8
16,AGGCUAU,-0.262
17,UCAACAU,-0.506
18,AUUGGAG,2.25
